This passage reports binding results from publication PMC11358511.

Amino acid sequences for entries named in this document (tags omitted).
UniProt P40763: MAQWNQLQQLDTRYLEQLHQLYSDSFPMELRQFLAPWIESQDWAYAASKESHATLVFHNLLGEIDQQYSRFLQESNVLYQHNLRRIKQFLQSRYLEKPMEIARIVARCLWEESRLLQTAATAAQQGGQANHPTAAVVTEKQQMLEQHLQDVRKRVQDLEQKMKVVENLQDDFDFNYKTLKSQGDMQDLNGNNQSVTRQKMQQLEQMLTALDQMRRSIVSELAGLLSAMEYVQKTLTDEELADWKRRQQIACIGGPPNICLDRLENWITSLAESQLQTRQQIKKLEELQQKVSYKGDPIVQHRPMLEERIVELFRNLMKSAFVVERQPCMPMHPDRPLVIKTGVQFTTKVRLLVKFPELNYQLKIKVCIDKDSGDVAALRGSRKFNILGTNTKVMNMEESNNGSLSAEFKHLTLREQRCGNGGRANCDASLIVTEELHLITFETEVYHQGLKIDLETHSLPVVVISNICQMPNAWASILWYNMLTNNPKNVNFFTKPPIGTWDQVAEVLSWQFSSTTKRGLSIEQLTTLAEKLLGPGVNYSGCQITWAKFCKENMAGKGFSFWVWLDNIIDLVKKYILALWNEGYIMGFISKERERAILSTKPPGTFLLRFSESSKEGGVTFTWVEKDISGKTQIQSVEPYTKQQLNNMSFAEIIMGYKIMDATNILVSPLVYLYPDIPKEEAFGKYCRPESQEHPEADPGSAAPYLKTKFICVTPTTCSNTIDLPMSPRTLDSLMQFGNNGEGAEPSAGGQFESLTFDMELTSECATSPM
UniProt P29350: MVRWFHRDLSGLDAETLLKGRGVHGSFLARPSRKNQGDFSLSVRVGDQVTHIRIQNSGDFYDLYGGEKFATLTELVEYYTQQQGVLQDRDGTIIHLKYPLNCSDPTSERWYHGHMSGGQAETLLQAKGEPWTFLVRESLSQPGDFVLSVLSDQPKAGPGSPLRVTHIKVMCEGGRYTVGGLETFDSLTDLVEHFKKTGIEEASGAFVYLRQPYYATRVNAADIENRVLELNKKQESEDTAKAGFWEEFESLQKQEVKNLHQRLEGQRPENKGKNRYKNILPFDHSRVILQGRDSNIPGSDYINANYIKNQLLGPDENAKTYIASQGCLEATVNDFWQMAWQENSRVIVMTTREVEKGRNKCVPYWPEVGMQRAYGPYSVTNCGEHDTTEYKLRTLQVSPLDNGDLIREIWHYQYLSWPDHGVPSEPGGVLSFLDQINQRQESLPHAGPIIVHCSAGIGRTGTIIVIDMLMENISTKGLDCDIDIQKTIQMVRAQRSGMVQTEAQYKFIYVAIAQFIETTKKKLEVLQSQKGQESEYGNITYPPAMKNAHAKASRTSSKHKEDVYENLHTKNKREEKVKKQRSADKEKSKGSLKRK

The target in assay [1] is T1, Flag-ETHE1 (ethylmalonic encephalopathy protein 1) (human) (UniProt O95571).
T1 sequence: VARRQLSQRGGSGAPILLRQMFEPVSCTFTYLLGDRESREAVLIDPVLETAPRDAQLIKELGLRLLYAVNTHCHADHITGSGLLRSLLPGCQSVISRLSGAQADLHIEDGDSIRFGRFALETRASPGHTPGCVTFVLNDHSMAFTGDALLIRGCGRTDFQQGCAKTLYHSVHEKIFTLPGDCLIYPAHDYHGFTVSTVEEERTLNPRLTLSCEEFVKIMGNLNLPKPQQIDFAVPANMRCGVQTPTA
In words: co-IP; HEK293T cells transfected with Flag-ETHE1 only; whole cell lysate; IP with anti-Flag beads; immunoblot for TC45, SHP1 and SHP2. In general terms: Immunoblotting shows a protein as a band on a membrane.

Assay [2] has as its target T2, endogenous ETHE1 (human (endogenous in SW48)) (UniProt O95571).
T2 sequence: T1 sequence
In words: co-IP; endogenous proteins; whole cell lysates of SW48 (and SW480) cells; IP with anti-STAT3, anti-ETHE1 or anti-TC45 antibody or IgG on Protein A/G beads overnight at 4 °C; immunoblot.

The target of assay [3] is endogenous STAT3 (human (endogenous in SW48 and SW480)) (UniProt P40763). The assay is described as above.
For assay [4], the target named is Flag-STAT3 protein (UniProt P40763). In words: pull-down; in vitro binding assay; Flag-STAT3 incubated with His-ETHE1 alone or with His-ETHE1 and His-TC45 together, rotated with anti-Flag magnetic beads overnight at 4 °C; five washes with lysis buffer; immunoblot; both purified.
Assay [5] addresses T1, Flag-ETHE1 (ethylmalonic encephalopathy protein 1) (human). In words: co-IP; HEK293T cells co-transfected with tagged plasmids (HA-STAT3, Flag-ETHE1, Myc-TC45); whole cell lysates in NP40 buffer; IP with anti-HA, anti-Flag or anti-c-Myc magnetic beads overnight at 4 °C; five washes with lysis buffer; immunoblot; for STAT3 with TC45 with vector or Flag-ETHE1 co-transfected.
The target of assay [6] is HA-STAT3 (UniProt P40763). The description is as above.

Results are given in words; binding and its absence hold for the method and conditions named. For some of these results: In cells and extracts the contact can be indirect. Some binding calls cover weakened binding; strength is not graded here. For some of these results: Where a sequence is shown, tags or fusion partners need not be part of it.

For the molecule “SHP1 (from UniProt P29350 1-595) (enzyme)”, the binding result in assay [1] is listed as “no binding”.

B1: endogenous TC45 (T cell protein tyrosine phosphatase) (enzyme, UniProt P17706-2 1-387)
chain: MPTTIEREFEELDTQRRWQPLYLEIRNESHDYPHRVAKFPENRNRNRYRDVSPYDHSRVKLQNAENDYINASLVDIEEAQRSYILTQGPLPNTCCHFWLMVWQQKTKAVVMLNRIVEKESVKCAQYWPTDDQEMLFKETGFSVKLLSEDVKSYYTVHLLQLENINSGETRTISHFHYTTWPDFGVPESPASFLNFLFKVRESGSLNPDHGPAVIHCSAGIGRSGTFSLVDTCLVLMEKGDDINIKQVLLNMRKYRMGLIQTPDQLRFSYMAIIEGAKCIKGDSSIQKRWKELSKEDLSPAFDHSPNKIMTEKYNGNRIGLEEEKLTGDRCTGLSSKMQDTMEENSESALRKRIREDRKATTAQKVQQMKQRLNENERKRKRPRLTDT
Turning to B1, the binding entry in assay [1], in assay [2] and in assay [3] was “binds” throughout.

B2: recombinant TC45 protein with His tag (enzyme, UniProt P17706-2 1-387)
chain: B1 chain
With B2, the binding result in assay [4] is recorded as “binds”.

B3: Myc-TC45 (enzyme, UniProt P17706-2 1-387)
chain: B1 chain
Turning to B3, the binding result in assay [5] and in assay [6] was “binds” each time.

B4: Flag-ETHE1 (ethylmalonic encephalopathy protein 1) (protein, UniProt O95571 8-254)
chain: T1 sequence
For B4, in assay [6], the binding result is listed as “binds”.

B5: endogenous ETHE1 (protein, UniProt O95571 8-254)
chain: T1 sequence
For the molecule B5, the binding entry in assay [3] is “binds”.

B6: His-ETHE1 protein (protein, UniProt O95571 8-254)
chain: T1 sequence
For the molecule B6, in assay [4], the binding entry is on record as “binds”.
